Results as given in the supplement of paper PMC11417369.
± gives the standard deviation of the averaged measurements. This is one part of the list.

System: PfAP2-EXP AP2 domain (GST-tagged)
Test: gcPBM binding intensity (ln(normalized median fluorescence intensity)); higher = stronger DNA binding
Method in brief: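 GST-tagged P. falciparum DNA-binding domains, expressed in E. coli (about 25 μg on average), were applied for 1 h to an Agilent 4 × 180k array of primer-extended double-stranded 36-bp intergenic genomic probes plus negative controls. The binding buffer was 1× PBS with 1% milk, 0.2 mg/ml BSA, 0.5% salmon testes DNA and 0.03% Triton X-100. Bound protein was detected with Alexa488 anti-GST antibody and scanned at 488 nm. Binding intensity is the highest Masliner-normalised natural-log median intensity across replicate spots of either probe orientation.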

Sequence | gcPBM binding intensity (ln)
ATATTTTTATATGAGGTGCATATAATGACAATTAAG | 8.765 ± 0.035
ATACTATTTAAATGGGTGCTAAAAATAACAAAAATT | 8.84 ± 0.34
TCTTTTTATGTTCTAGAGCATTTTATTATTTAACAT [CACACA_negctrl_site1699] | 8.71 ± 0.42
TTCCCCCCCAGACACACACACACATACATACCACAT [CACACA_site2305] | 10.5 ± 0.24
AATCGAAATCGTGCACGGACACATGCAGTAGCCGAG [XGTACX_site6001] | 9.29 ± 0.6
ATATATATACACAATAGTACGTGTAATATTATTATT [XGTACX_site2151] | 8.525 ± 0.021
TATACCTATAAATACACACACATATATAAATAAATA [CACACA_site6730] | 8.64 ± 0.47
TTTTCTTTTTGTTCGTGTACACACATGAAATTTATA [XGTACX_site3301] | 9.02 ± 0.38
AAACGTACATAATACACACACATGTATACATATAAA [CACACA_site2048] | 8.74 ± 0.52
ATTTCTTTTTTTTTTTTTTTTAATGTAAAACATTTT [CACACA_negctrl_site1462] | 8.34 ± 0.51
GAAGTTAGTGTTGACTGTACATATATATGTATATAT [XGTACX_site7243] | 8.69 ± 0.35
AAAAAAAAAAAAAAGAGTACTCATATAAAAATATAA [XGTACX_site6551] | 8.43 ± 0.33
GGTGGTAAAAAACCTGCATGTCGAAATATTAAATAC [TGCATGCA_site33] | 9.23 ± 0.29
AAGAAGAAACAAAACACACACAGTCTTCTTTTCTAT [CACACA_site3088] | 8.78 ± 0.78
GTATATGAATAATATTTTATGGTAATTTTTTTTTTT [XGTACX_negctrl_site512] | 8.12 ± 0.38
TACAGAATTGTATATAGTACATAAAACAATATATAT [XGTACX_site7275] | 8.7 ± 0.43
TGTGTAAAAATCATGGGTACACATTTTGATACCAAT [XGTACX_site1779] | 8.69 ± 0.4
AATGAAAAGTAAAATACACACACATAATATAATTTA [CACACA_site8608] | 8.59 ± 0.39
AAACTTGACGAACACACACACACATATATAAAAAAA [CACACA_site6494] | 8.72 ± 0.45
TTTTTATAAAAAATTTACACTATATGACAGAAGTAA [XGTACX_negctrl_site481] | 8.38 ± 0.49
ATAAATTAAAAACACACACACATCTGGATACCCCTA [CACACA_site5780] | 8.77 ± 0.49
ATATAAGTACCTATAACACACATATATTATAAGTAT [CACACA_site7281] | 8.5 ± 0.35

Sequence | gcPBM binding intensity (ln)
TAGAATAAATTAATTACACACGGAATTATATATATA [CACACA_site1616] | 8.88 ± 0.014
AAAAAAAAAAAAAAAAGTACATGAAAAAAAGAAGAA [XGTACX_site8384] | 8.87 ± 0.28
TATAATAGTTCATAGGTGCAATATAATAAATTTATA [GTGCAC_site9573] | 8.71 ± 0.15
TATCATATATTATAGCGTACTTATTTATTTATTTAT [XGTACX_site1676] | 8.79 ± 0.47
AAAAAATACATCAAAAGAAACATATATATATATATA [GTGCAC_negctrl_site719] | 10.2 ± 0.67
ATAAAACTTATTTAACGTACATATTTTATATACCTT [XGTACX_site5353] | 8.69 ± 0.45
TATAAAATAAATAACAAAAAAAATAAAATAAAAATA [TGCATGCA_negctrl_site297] | 8.47 ± 0.47
TTTTTTTTTTAGTATGAACACACATATATATTATAA [CACACA_site8957] | 8.46 ± 0.32
AATGGTTATAATATATGTACATATAAATATACTGAA [XGTACX_site8533] | 8.6 ± 0.38
TATAGCAAAATATTCACACAAACTATTAATAAAAGT [CACACA_site5795] | 8.69 ± 0.45
CTGTATTTATTTTTCTGTACCAAATCACCCCTTGTA [XGTACX_site395] | 9.02 ± 0.45
TATATTTATAAATGAACACACACGCAATTTGAATCG [CACACA_site3370] | 8.91 ± 0.49
TTTCTTTTTCGATATACACACTGTATGTGTCTAAAA [CACACA_site6054] | 8.46 ± 0.35
TACGTTTTATGACACACACACAAAAAAAAAAAAAAA [CACACA_site7764] | 8.32 ± 0.45
GATGTATAAAATAATACATGCATGTCCTACATATAT [TGCATGCA_site155] | 9.37 ± 0.37
ACTATTTTAAAAATATGTACATACGTTGTAATTTAA [XGTACX_site7999] | 8.57 ± 0.37
TTTCCGGTAATATGGAAATATATGTGGGTTTTTTTT [CACACA_negctrl_site1536] | 8.42 ± 0.69
CGAAGGATAAACATACGTACATATATGTGTATAATA [XGTACX_site779] | 8.67 ± 0.47
TTGTATTAAAATCAAGTGCATATAATTTAAGTTCAT [GTGCAC_site9495] | 8.38 ± 0.11
CTTTGGTTATAACACACATGCACACGTAAATAAATA [TGCATGCA_site976] | 9.13 ± 0.38
GTAGGTTACAAAATGTGAGAGAAGCAAATATAGAAA [CACACA_negctrl_site1819] | 9.06 ± 0.4
CATCACCTTTTTAAATGTACGCATAATACCAAAAAA [XGTACX_site1587] | 8.67 ± 0.17

Sequence | gcPBM binding intensity (ln)
TTTTGTTTTTAGTTTATACACACCATATTAATATAA [CACACA_site3102] | 8.76 ± 0.44
AAAAATGGTGTTAACACACACATATATATATATATA [CACACA_site571] | 10.2 ± 0.17
TTTCTCTCTTATAAAATACACACGAACAATCATATT [CACACA_site509] | 8.5 ± 0.38
ATAAATAGTATTATATGTACACATAATATTTATAAA [XGTACX_site4751] | 8.62 ± 0.14
ATAGTTACACGCCAAAAAAAAAAAAAAAAAAAAAAA [CACACA_negctrl_site1133] | 8.15 ± 0.44
TTAATATAGGGAAAAAAAAGAAAATCGAAAATGTGT [CACACA_negctrl_site834] | 8.76 ± 0.49
TATAATTATGATGATAGTACGTATGAGTTCAAAACA [XGTACX_site4211] | 8.62 ± 0.37
CACATTTTTTAAATATTTTTCTACTCCATAATGTTT [CACACA_negctrl_site557] | 8.89 ± 0.4
TTAAAATGATTGTTACTTTTTTTTCCGTTTTCTTAA [CACACA_negctrl_site1195] | 8.41 ± 0.52
AATTTTGTCCTATGTTGTACTATTTTGCTCTATTTT [XGTACX_site7139] | 9.12 ± 0.55
TAACTTCAAAAATCTTGTACATAAATATATAAAACA [XGTACX_site8574] | 8.53 ± 0.44
GTTTATATATTATAAAGTACATATGAATTTAATAAT [XGTACX_site3601] | 8.39 ± 0.39
ATTTCAAAATATAGCTGTACAAAAAATGTAGATATA [XGTACX_site5843] | 8.77 ± 0.56
AAAAAATAAATAAACATAAATAAATAAATAAATATA [XGTACX_negctrl_site340] | 8.49 ± 0.33
GATCATTCTAAATATAAACACACATAAATATATACA [CACACA_site9108] | 8.7 ± 0.51
ATAATATAATAATATTGTACATGGTCAAATATGAAA [XGTACX_site8390] | 8.46 ± 0.3
CTTAAAAAAATATATTGTACATATATATATACAACT [XGTACX_site1281] | 8.33 ± 0.3
TATATTCCCATATAACGTACATATGAGACACCAACT [XGTACX_site8099] | 8.65 ± 0.42
CACGTGAAAATACAAGCATGCAAGCTTTTTTTTTCT [TGCATGCA_site642] | 9.47 ± 0.085
AATTTTCAATAGTATACACACAATTCTATAAATATA [CACACA_site6650] | 8.21 ± 0.42
AATGAGAATTTTATTACACACTTTAATATATTTTCA [CACACA_site784] | 8.34 ± 0.38
AATTTTTTTATAGCACGTACAAAAATACAAAATACA [XGTACX_site1569] | 8.94 ± 0.16

Sequence | gcPBM binding intensity (ln)
TTATGTCTAATGAAATGTACATGAATAAATTAAAGT [XGTACX_site8138] | 9.04 ± 0.25
AGTGAAATTTTAGTCACACAGTTTTATCTTTAAGAA [CACACA_site5202] | 8.12 ± 0.52
TAGAGGAATATAATATGTACATAATATAATGTATAT [XGTACX_site2838] | 8.62 ± 0.4
ATCATTTATATTTTATGTACATATATAATTATATTT [XGTACX_site2129] | 8.88 ± 0.35
AAAAAAATAAATAAATGTACACATATATATATATAT [XGTACX_site4350] | 10.2 ± 0.47
AATTATATAAGCCACGCATGTGTGCATAAAAATACA [TGCATGCA_site114] | 8.93 ± 0.24
AGCCCAAAAAAGTAGACATGCAAAAACTTTACAACT [TGCATGCA_site550] | 8.79 ± 0.46
AAAAAAAAAAAGAAGGGTACATATTATATATAATAT [XGTACX_site6204] | 8.59 ± 0.48
TATATATAAACATAATGTACATATAATAAGTAATAT [XGTACX_site497] | 8.89 ± 0.45
TCTTGATCTTATATATATCTACAATATTTTATACAT [TGCATGCA_negctrl_site569] | 8.84 ± 0.41
ATTACAAATATAATATGTACTTAAATATAATTAAAA [XGTACX_site7038] | 8.17 ± 0.34
ATTACTAAAACAAAATGTACATATGATTTAAGAAAA [XGTACX_site5992] | 8.52 ± 0.3
TTTTTTTTTTAGAGTACACACTTTTTTACATTTATG [CACACA_site5990] | 8.56 ± 0.4
ATATATATATATATTGCACACATATAAATATATATA [CACACA_site8167] | 9.95 ± 0.29
TTTTTGTTTTTTTTGTGTACTTATCAAATATATATA [XGTACX_site7273] | 8.81 ± 0.42
GAAAAATTTAATTATTGTACGTTTCATCTATATTTA [XGTACX_site414] | 8.57 ± 0.44
AAGAAAATTAACCCATGTACTTATGTAGATAGCAAG [XGTACX_site1049] | 8.64 ± 0.42
TACTATATATTATATAGTACATAAGATATACAACAT [XGTACX_site2929] | 8.61 ± 0.38
CAAAAAAAATTATACACACACACACCCATATATATA [CACACA_site1044] | 8.85 ± 0.3
TAAAACTTAATATAAACACACAAAAATTAATAAATA [CACACA_site4370] | 8.47 ± 0.53
CAATATTATAGATATACACACATAATGTGTAAAAAC [CACACA_site6631] | 8.68 ± 0.39
CATATTTTGTGAAAAAGTACATATATATATATATAT [XGTACX_site6295] | 10.1 ± 0.33
